# The supplement of paper PMC11417369
# ± gives the standard deviation of the averaged measurements. This is one part of the list.
# Test system: PfAP2-I AP2 domain 3 (GST-tagged)
# Assay: gcPBM binding intensity (ln(normalized median fluorescence intensity)); higher = stronger DNA binding
# In short: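 GST-fused DNA-binding domains of P. falciparum, expressed in E. coli, were applied at about 25 μg on average for 1 h to an Agilent 4 × 180k array of primer-extended double-stranded 36-bp intergenic genomic probes and negative controls. Binding intensity is the highest Masliner-normalised natural-log median intensity across replicate spots of either probe orientation, measured with Alexa488 anti-GST antibody and a 488 nm scan.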
row,Sequence,gcPBM binding intensity (ln)
1,ATTATTTGTTTAATGAGTACGAAGACAAATTTTACC [XGTACX_site5223],8.12 ± 0.49
2,TATATACACAGACACACACACACATACACGCACATA [CACACA_site6909],8.33 ± 0.23
3,GTACTATACAAAGATGATAATCAATATATATATATA [XGTACX_negctrl_site264],9.38 ± 0.62
4,AAAGGAAAAAAAAGCACACACAATATTACTTGAAAT [CACACA_site2588],7.97 ± 0.63
5,TTCACCAGTTGGTAAACATGCAATTTTCCATACAAG [TGCATGCA_site267],7.75 ± 0.71
6,AAAAAAAACGGACACACACACATACCCATACATACA [CACACA_site5574],8.21 ± 0.11
7,ATATAAATACATAAATGTACTTACCATTTAAATATG [XGTACX_site5254],7.73 ± 0.44
8,ATTCTTTTAAAATAGGTGCTAAAAATAATATGTTAC,9.595 ± 0.035
9,TACAATAAGGATAAGTGTACATATGTGCATACATAT [XGTACX_site7188],9.03 ± 0.085
10,AAAAATTATAGAAAAGTGCAATACATGTTACACCAT,10.28 ± 0.078
11,CATATAGCATAATCATGTACACATACAACAAATAGG [XGTACX_site1589],8.14 ± 0.4
12,ATTCTCCAAGTTTGATGTACACATATGACGACGGCG [XGTACX_site4912],7.92 ± 0.38
13,TATAATAATTATACATGTACACATTATTTGGATAAA [XGTACX_site5552],7.86 ± 0.11
14,TTTTTATATTTAATGTGTCCTCACTTAAAAGGATGA [XGTACX_site2744],7.7 ± 0.4
15,AATATATTTTTTGGTTGTACAGAGATCTTTGTAGAA [XGTACX_site1707],7.76 ± 0.18
16,ATATTTATTTATTTATGTACGCACACAGTTGATATT [XGTACX_site5808],8.53 ± 0.25
17,CACTATATAAGAACCTGTACTCAATTTTGCAATATA [XGTACX_site7238],7.92 ± 0.54
18,AAATTATATTCAAGTGCATGTAACTTATTATTATAT [TGCATGCA_site526],8.27 ± 0.45
19,TAATAATAAAAATAAACACACATATATATGTATATA [CACACA_site2853],7.44 ± 0.4

row,Sequence,gcPBM binding intensity (ln)
1,TATATTTTCCTGCAAACACACATATAAATGTGTAGA [CACACA_site533],8.22 ± 0.84
2,TATAATCAATATGTAACACACAAAAGTTATATACTT [CACACA_site7368],7.58 ± 0.5
3,AACATGCTCAACTTTTTTTTTTTTTTTTTTTTTTTT [CACACA_negctrl_site1617],9.705 ± 0.064
4,GTAAAAATAAAAACTGGTACACAAGTTGTTATAAAA [XGTACX_site502],7.71 ± 0.65
5,AAAATAAAATAAAAGTGTACGTTTTAAGAACATTGA [XGTACX_site2382],7.76 ± 0.48
6,CTTTTTTGTTAAAGTGTGCGCAATAGTTATAGACTT [GTGCAC_site9670],9.48 ± 0.14
7,AATCTTAAAAATATATGTACTAAAAAAAAAAAAAAT [XGTACX_site6195],7.77 ± 0.44
8,ATGAATAAATTAAAAATGCACACTTTGATGGGTACA [CACACA_site2157],8.84 ± 0.099
9,TATATATATATATATACACACTATATAATTCAAACA [CACACA_site4712],9.46 ± 0.45
10,TTACGATTATACAAAAGTACATGTATTACACAATAT [XGTACX_site5138],8.09 ± 0.36
11,TATACCAGTTTTAAAAGTACTTGTGCATAAAAAATA [XGTACX_site4794],10.4 ± 0.17
12,AAACTTGTAAGAAACACACACACACCCATATATATA [CACACA_site797],8.34 ± 0.6
13,AAATTGGGGCTTGTTACACACTTAGTGGGAGTTCTA [CACACA_site4485],8.15 ± 0.58
14,AACATATATATATATACATGCATATGAACAACGAAT [TGCATGCA_site93],8.09 ± 0.73
15,TGTATAAATATAATCACACATATATATATATATATA [CACACA_site4365],9.32 ± 0.53
16,TATAAAAATGTTTACACACACACATAAATATATTTT [CACACA_site2512],7.79 ± 0.5
17,TTTTTTTTTTTTCTGAGTACGAAAAATAGAGATAGA [XGTACX_site3825],8.04 ± 0.45
18,AAGTTACAAAATCAAAAGGAAAAAATATAAAATAAT [CACACA_negctrl_site561],7.63 ± 0.69
19,CAAGAAAATTGACACACACACATATTTATATTTATA [CACACA_site7766],7.66 ± 0.56

row,Sequence,gcPBM binding intensity (ln)
1,TTTTTTTAATTAGTTTGTACATATTGTTATAATATA [XGTACX_site6294],8.04 ± 0.057
2,CATGTTATGATTCCATGTACTTATAGCATTAAAAAA [XGTACX_site8939],7.81 ± 0.42
3,AAAAAAAAATACATATGTACTTATGTATAATGTTGT [XGTACX_site8104],7.72 ± 0.31
4,ATTATACCACCCGATATACACACTTGTAGACATCTT [CACACA_site7944],8.22 ± 0.42
5,TATATTAAACCATGTAGTACCTTGAATAAATATTAT [XGTACX_site8254],7.81 ± 0.28
6,ATAAAAAGGAGACACACACACACACGCATATTTATA [CACACA_site6551],7.97 ± 0.4
7,TTAATTACATGTAATTGTACTTAATTATAAGACATT [XGTACX_site464],7.71 ± 0.28
8,TATTACTTATAAATTACACACAAATGATTGAACATT [CACACA_site2259],7.59 ± 0.57
9,TATACCTTTTTATTCACACATATATGTCATATGTCA [CACACA_site5423],8.03 ± 0.52
10,TTAAAATAAAGAAAATGTACATAAATAAAAATAAAG [XGTACX_site2280],8.35 ± 0.45
11,TTTTACCTAAATATCACACATATTTAAATATATATA [CACACA_site5597],7.89 ± 0.55
12,CAACTAATATTAAAACGTACATAAATATTTAACAGA [XGTACX_site625],7.67 ± 0.57
13,ATCACATATATATATAATATATATATGTATATATTT [GTGCAC_negctrl_site249],7.34 ± 0.41
14,AAAAAAAATATATATGCACACACAAAAAAACAAATT [CACACA_site8349],9.3 ± 0.22
15,ATATATATATATATATGTACATATATTTTTATTTAT [XGTACX_site3508],9.19 ± 0.42
16,AGTGATAATTTAAAAAGTACAAATGAAATTTAGCTA [XGTACX_site3375],7.63 ± 0.47
17,TATATATAAAGCAGTACACACATTTATTTTAGATAC [CACACA_site3387],8.31 ± 0.4
18,AGAGAGAAAGCTATAACATGCAAAAATTTTTAGAAC [TGCATGCA_site420],8.08 ± 0.79
19,ATACAAATAAAAAAAAAAATTATAAAATTATAAAAT [CACACA_negctrl_site914],7.41 ± 0.4
